Laboratory results published in PubChem BioAssay AID686978 (National Center for Advancing Translational Sciences (NCATS), 2013).
In all, about 420,000 compounds went through this assay and about 64,000 (15%) were called active. Inconclusive means that the source gave no clear call. Such entries were picked first, then a sample of the others. Calls come from the whole dose curve; as a rule, active = well fitted inhibition curve with a large enough effect; inconclusive = small, poorly fitted or top-dose-only effect; inactive = flat fitted curve, though single readings scatter. Potencies of inconclusive entries are left out as doubtful fits.
% is set by controls: 0 for no effect and ±100 for the full control effect; potency is the fitted concentration of half-maximal effect; tags give direction and shape of the fitted curve.

Test: qHTS for Inhibitors of human tyrosyl-DNA phosphodiesterase 1 (TDP1): qHTS in cells in absence of CPT; note: nearly all actives have a fitted effect of over 55% in size
Conditions: DT40 Tdp1-/- hTDP1 cells, no CPT, ATP luminescence, 48 h; activity change, negative = growth inhibition: at 46.2 µM (top of the series) unless noted
Outline: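 Seeded 400 DT40-hTDP1 cells/well (vehicle DMSO, no 20 nM CPT); pinned compounds; ≥48 hr at 37 °C; CellTiter-Glo luminescence as viability measure.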
With `CCC1Oc2ccccc2N(CC(=O)NCc2ccc(C)cc2)C1=O` (centres undefined) the Potency was inconclusive [inhibitor, partial curve, poor fit]. In the case of `O=C(Cn1c(=O)n(-c2ccccc2)c(=O)c2c3c(sc21)CCCC3)Nc1ccc(F)cc1`, the Potency is reported as inconclusive [inhibitor, single point]. For `O=C(c1cccc([N+](=O)[O-])c1)N1CCN(c2ccc(Cl)cc2)CC1`, the Potency was active: 14.6 µM. In the case of `CCOc1ccc(N(CC(=O)Nc2cc(Cl)ccc2C)S(C)(=O)=O)cc1`, the Potency is reported as active: 23.1 µM. In the case of `Cc1c(C(=O)N2CCCCC2)c(S(=O)(=O)NCCc2ccc(Cl)cc2)c(C)n1C`, the Potency is reported as active: 20.6 µM. For `CC(C)C[C@@H](COCc1cccc(Cl)c1)N1CCN(C(=O)c2cccc(C(F)(F)F)c2)CCC1=O`, the Potency was active: 16.4 µM. For `CC(C)COP(=O)(c1ccc(N(C)C)cc1)C(O)c1ccccn1` (centres undefined), the “activity change, negative = growth inhibition” value was inactive: -25.8%. In the case of `COc1ccc(S(=O)(=O)Nc2ccc3c(c2)C(=O)N([C@@H](C)CO)C[C@H](C)[C@H](CN(C)S(=O)(=O)c2ccc(F)cc2)O3)cc1`, the Potency is reported as inconclusive [inhibitor, single point]. For `CCNc1nc(N2CCCCC2)nc(-n2nnc(C(=O)OCC)c2C)n1`, the Potency was inconclusive [inhibitor, single point]. With `CN1CCc2c(sc3c2C(=O)NC(c2ccc(-c4ccc(Cl)cc4)o2)N3)C1` (centres undefined) the Potency was inconclusive [inhibitor, partial curve]. For `COc1ccc(Br)cc1CNC(=O)c1cc2c(=O)n(C)c3ccccc3c2s1`, the “activity change, negative = growth inhibition” value was inactive: -22%. For `COc1ccc(CN(Cc2ccccc2)C(C)=O)cc1COc1ccc(NC(C)=O)cc1`, the Potency was active: 11.2 µM. For `CCN1CCN(c2ncc3c(n2)CCN(Cc2ccc(C)s2)C3)CC1`, the Potency was inconclusive [inhibitor, single point]. In the case of `Nc1ncnc(Nc2ccccc2Oc2ccccc2)n1`, the “activity change, negative = growth inhibition” value is reported as inactive: -2.57%. With `Cc1noc(C)c1S(=O)(=O)Nc1ccc(C(=O)N2CCN(c3cccc(Cl)c3)CC2)cc1` the “activity change, negative = growth inhibition” value was inactive: -12.3%. In the case of `Clc1ccc(SCNc2ccccc2Cl)cc1`, the Potency is reported as inconclusive [inhibitor, full curve, poor fit]. In the case of `CCOC(=O)c1cc(CC)sc1NC(=O)CSc1nc2ccccc2c(=O)n1Cc1ccco1`, the Potency is reported as inconclusive [inhibitor, single point]. In the case of `CC(C)CC(=O)N(Cc1ccccc1)S(=O)(=O)c1ccc2c(c1)oc(=O)n2C`, the Potency is reported as inconclusive [inhibitor, full curve, poor fit]. In the case of `CS(=O)(=O)N(CC(=O)N1CCN(c2ccc(F)cc2)CC1)c1cccc(Cl)c1`, the Potency is reported as inconclusive [inhibitor, partial curve]. For `Clc1cccc2sc(-c3nnc(-c4ccccc4)o3)c(Cl)c12`, the Potency was inconclusive [inhibitor, single point]. For `COC(=O)c1sc(NC(=O)c2ccco2)nc1C`, the Potency was inconclusive [inhibitor, single point]. For `CNc1nc(C)cc(C)c1S(=O)(=O)c1ccc(Cl)cc1`, the activity change, negative = growth inhibition was inconclusive: -39.5% [inhibitor]. With `OC(c1cccc(Cl)c1)c1nc(-c2ccc(Cl)cc2)cs1` (centres undefined) the Potency was inconclusive [inhibitor, single point]. In the case of `O=C(O)CC(C(=O)O)C(=Cc1ccccc1)c1ccccc1` (centres undefined), the “activity change, negative = growth inhibition” value is reported as inactive: 2.71%. For `COC(=O)c1ccc(/C=N/OCC(=O)NC2CCCC(C)C2C)cc1` (centres undefined), the Potency was inconclusive [inhibitor, single point]. With `CCn1c2c(c(=O)n3ncc(C(=O)Nc4ccc(F)c(Cl)c4)c13)CN(Cc1ccc(OC)cc1)CC2` the Potency was inconclusive [inhibitor, single point]. For `CC(=O)c1ccc(NC(=O)COc2ccccc2-c2nc(C)no2)cc1`, the “activity change, negative = growth inhibition” value was inactive: 3.92%. In the case of `O=C1[C@@H]2Cc3c([nH]c4ccccc34)CN2C(=O)CN1CCCO`, the “activity change, negative = growth inhibition” value is reported as inactive: 1.63%. In the case of `Cc1cc(N2C(=O)C(O)=C(C(=O)c3ccc(C)o3)C2c2cccc(Cl)c2)no1` (centres undefined), the Potency is reported as inconclusive [inhibitor, single point]. For `COc1ccc(-c2nc(SCC(=O)NCc3ccco3)c(-c3ccccc3)[nH]2)cc1OC`, the Potency was inconclusive [inhibitor, single point]. In the case of `CCCCNC(=O)c1ccc2c(c1)N(C)C(=O)c1ccccc1S2`, the Potency is reported as inconclusive [inhibitor, partial curve, poor fit]. With `CC1(C)C[C@H]2C3=CCC4[C@@]5(C)CC[C@H](O)[C@](C)(CO)C5CC[C@@]4(C)[C@]3(C)CC[C@@]2(C)[C@H](O)[C@@H]1O` (some centres undefined) the Potency was inconclusive [inhibitor, single point]. In the case of `Cc1c(C)c(C)c(S(=O)(=O)N2CCC3(CC2)OCCO3)c(C)c1C`, the Potency is reported as inconclusive [inhibitor, single point]. With `CCCCCC1CCC(C(=O)N2CCOCC2)CC1` (centres undefined) the “activity change, negative = growth inhibition” value was inactive: -14.7%. With `FC(F)Oc1ccc(NC(=S)N2CCN(Cc3ccccc3)CC2)cc1` the “activity change, negative = growth inhibition” value was inactive: -24.2%. In the case of `CCN(CC(=O)NCc1cccs1)S(=O)(=O)c1cccc(Br)c1`, the Potency is reported as inconclusive [inhibitor, partial curve]. In the case of `CC(=O)c1cc(-c2ccccc2)n(CC(=O)Nc2ccc(C)cc2C)c1C`, the Potency is reported as inconclusive [inhibitor, partial curve, poor fit]. For `CCn1c(SC(C)C(=O)NCC2CCCO2)nc2ccccc21` (centres undefined), the “activity change, negative = growth inhibition” value was inactive: -22.8%. In the case of `O=C(Nc1ccccc1)c1cc(C2CCCCN2C(=O)CCCc2ccccc2)on1` (centres undefined), the Potency is reported as inconclusive [inhibitor, single point]. In the case of `O=C(Cn1cnc2c(OCc3ccccc3)ncnc21)NCc1ccccn1`, the “activity change, negative = growth inhibition” value is reported as inactive: -6.89%. For `COc1cccc(N2CCN(CC(=O)Nc3nnc(-c4ccccc4)s3)CC2)c1`, the Potency was active: 20.6 µM. In the case of `O=C(Cc1ccccc1)NC(=S)Nc1ccc(OC(F)F)cc1`, the “activity change, negative = growth inhibition” value is reported as inactive: -1.38%. In the case of `COC(=O)C1=C(C)NC(=O)NC1c1ccc(-c2ccc(F)cc2)o1` (centres undefined), the “activity change, negative = growth inhibition” value is reported as inactive: -3.34%. With `COc1cc2oc(-c3ccccc3)cc(=O)c2cc1OC` the Potency was inconclusive [inhibitor, partial curve, poor fit]. For `Cc1ccccc1C(=O)c1cccn1CC(=O)N1CCCCCC1`, the activity change, negative = growth inhibition was inconclusive: -34.7% [inhibitor]. In the case of `Cc1ccc(-n2nc3c(=O)n(CC(=O)NC4CCCCC4)nc(C)c3c2C)cc1`, the Potency is reported as inconclusive [inhibitor, single point]. In the case of `Nc1nc(SCC(=O)Nc2cccc([N+](=O)[O-])c2)n[nH]1`, the “activity change, negative = growth inhibition” value is reported as inactive: -21.1%. With `Cc1noc(/C=C/N(C)C)c1S(=O)(=O)N1CCCC(C(=O)NCc2ccccc2Cl)C1` (centres undefined) the activity change, negative = growth inhibition was inconclusive: -30.2% [inhibitor]. In the case of `Cc1ccc(-c2nc(CS(=O)CC(=O)O)c(C)o2)cc1` (centres undefined), the Potency is reported as inconclusive [inhibitor, single point]. In the case of `Cc1ccc(S(=O)(=O)c2cn(CC(=O)Nc3ccccc3)c3cc4c(cc3c2=O)OCO4)cc1`, the “activity change, negative = growth inhibition” value is reported as inactive: -9.16%. In the case of `COc1ccc(-c2noc(N3CCC(C(=O)Nc4ccc(OC)cc4OC)CC3)n2)cc1`, the Potency is reported as inconclusive [inhibitor, single point]. With `Oc1c(Cl)cc(Cl)cc1/C=N/c1nc(-c2ccc(Cl)cc2)cs1` the Potency was inconclusive [inhibitor, single point]. For `Cc1cccc(C)c1N1CCN(C(=O)c2ccc3c(c2)OCO3)CC1`, the Potency was inconclusive [inhibitor, partial curve]. In the case of `OC(c1cc(-c2ccc(C(F)(F)F)cc2)nc(C(F)(F)F)c1)C1CCCCN1` (centres undefined), the Potency is reported as active: 6.51 µM. With `O=C(COc1ccccc1)N=C1SC2CS(=O)(=O)CC2N1CCc1ccccc1` (centres undefined) the “activity change, negative = growth inhibition” value was inactive: -6.2%. With `COc1ccc(N(C)C(=O)c2oc(=O)c3ccccc3c2-c2ccccc2)c(OC)c1` the Potency was inconclusive [inhibitor, single point]. In the case of `COc1cccc(-n2cc(CNCc3cn(C)nc3-c3ccccc3F)cn2)c1`, the Potency is reported as active: 25.9 µM. In the case of `Cc1cc(SC(C)C(=O)O)nc2ccccc12` (centres undefined), the Potency is reported as inconclusive [inhibitor, partial curve]. With `CC(=O)c1cccc(NC(=O)c2cc(C(C)C)on2)c1` the Potency was inconclusive [inhibitor, single point]. In the case of `CC1=C(C(=O)OCc2ccccc2)C(c2cccnc2)n2nnnc2N1` (centres undefined), the Potency is reported as active: 16.4 µM. In the case of `O=S(=O)(c1ccc(OCC(O)CN2CCN(c3ccccc3Cl)CC2)cc1)N1CCOCC1` (centres undefined), the Potency is reported as inconclusive [inhibitor, single point]. With `CCCc1ccc(C(=O)NNc2cccc(C)c2)cc1` the Potency was inconclusive [inhibitor, single point]. With `CC(NC(=O)c1cccnc1)C(c1cccs1)N1CCN(c2ccccc2F)CC1` (centres undefined) the Potency was inconclusive [inhibitor, single point]. With `O=C(OCC(=O)N1CCc2ccccc21)[C@@H]1CC(O)CN1S(=O)(=O)c1ccc(Cl)cc1` (some centres undefined) the Potency was inconclusive [inhibitor, single point]. In the case of `COc1cccc(OCc2cc(C3Nc4ccccc4C(=O)N3Cc3ccco3)ccc2OC)c1` (centres undefined), the Potency is reported as inconclusive [inhibitor, single point]. For `CCOc1cccc(/C=N/NC(=S)Nc2cc(S(=O)(=O)N3CCOCC3)ccc2N2CCOCC2)c1O`, the Potency was active: 5.8 µM. For `Cc1cccc(N2CCN(C(=O)c3ccc4c(c3)CCN4S(=O)(=O)c3ccccc3)CC2)c1C`, the Potency was active: 6.51 µM. For `COC(=O)c1ccccc1-n1cccc1C(=O)NP(=O)(N1CCOCC1)N1CCOCC1`, the “activity change, negative = growth inhibition” value was inactive: -0.751%. For `Cc1cccc(-c2ncc(CN3CCCC(CO)(Cc4cccc(Cl)c4)C3)cn2)c1` (centres undefined), the Potency was inconclusive [inhibitor, single point].
